Laboratory results published in the RNAGym collection of RNA variant scans (doi:10.7554/elife.90254).
Read counts are not given, so values of variants with three or more changes are uncertain.

B1: LINE1-mini (parent)
chain: GGCAGAGCUCAACACAGCGUGGCAAAGUGGCUGUGGCUAGACUGCC

Variants of: B1
Experiment: self-cleavage, relative activity (ratio to wild type); higher = more cleavage; in vitro, sequencing; the parent is a self-cleaving ribozyme

Row | Variant | self-cleavage
1 | C10A A11C C23U A24C U38C | 0
2 | C10A A12U C23A C42U | 0.01
3 | U9G G35U C37A | 0.05
4 | U9G C31A A39C | 0.03
5 | C10A U20A A24C A41C | 0.01
6 | C10A A11C G19U C23U A24U | 0.01
7 | C10A C15A G17U U20C | 0.03
8 | C10A G21C G30U C31G | 0.03
9 | C10A A26C U34C | 0.01
10 | C10A G19A U28A | 0.03
11 | C10A C18A G22A | 0.05
12 | U9G G44C C45A | 0.03
13 | U9G U20G G27A G29C G35A | 0
14 | C10A G19A C31G | 0.03
15 | C10A C15A G19U C31G | 0
16 | C10A U20G G35U | 0
17 | C10A A24U G35C G44U | 0.02
18 | C10A A11U A14C | 0
19 | C10A C15U G22U | 0.05
20 | U9G C23A A26G | 0.07
21 | C10A C18A G19C U43A | 0.02
22 | C10A C13U C15G U20C U43A | 0.01
23 | C10A C18A A41C | 0.04
24 | U9G G40U A41U | 0.12

Row | Variant | self-cleavage
25 | U9G U32A U38A | 0
26 | C10A A12G G19A | 0.04
27 | C10A G29U A41G G44A | 0.01
28 | C10A A16U U20G U34G | 0.01
29 | C10A G21C C46G | 0.01
30 | C10A C37U A41U | 0.01
31 | C10A U28C A39C | 0.06
32 | C10A U32A C42A | 0.03
33 | C10A A11U G22U G35C C37G | 0
34 | C10A C18U U28A | 0.03
35 | C10G A11G C15A G17A | 0.02
36 | C10A C18U A24U A41G | 0.03
37 | C10A C18A U20A G44A | 0.01
38 | C10A A12C G27C | 0.02
39 | C10A A12C C18A A24C | 0.01
40 | C10A G21U G35U U43A | 0.01
41 | C10A C15G C23G C37U | 0.01
42 | U9G C31A C46G | 0.04
43 | C10A C13A G29C C31U C37U G44A | 0.01
44 | U9G C18U G21U | 0.03
45 | U9G G22U U34A C45G | 0.07
46 | C10A G21A G35A C42G | 0.03
47 | C10A G33C U38A | 0
48 | U9G U20A G35A A41G | 0.05

Row | Variant | self-cleavage
49 | C10A C18A A25G A26C A39C G40C U43C | 0
50 | U9G C18A U28A C37A | 0.23
51 | U9G C23U U43A | 0
52 | C10A A25C G27C G40U | 0.02
53 | C10A C15U G36A C42G | 0.02
54 | C10A G21A G22C G29A | 0.04
55 | C10A G21U G29U C37G | 0.02
56 | C10A C13U C37G | 0
57 | C10A C18A C46G | 0.01
58 | C10A A25U A26C U28G | 0.09
59 | C10A A14C A16C U38G G44A | 0.01
60 | C10A A26G G30U U32G C45A | 0.02
61 | C10A U32G G33U G35C | 0.01
62 | U9G C13U G17U A26C C37U G40U U43G C46A | 0.36
63 | C10A A24C A25C G27U C37A A39U C46U | 0
64 | C10A U34A C45A | 0.02
65 | C10A C18A A26C G33C U43C | 0
66 | C10A G27U G29C G33A G40U | 0.03
67 | C10A A41G G44A | 0.04
68 | U9G U20C A26C | 0.02
69 | C10A C18G G33U A39U U43C | 0
70 | C10A C13G G17U U20C G35U | 0.04
71 | C10A A14C C45A C46G | 0.03
72 | C10A G30U U43C | 0.01

Row | Variant | self-cleavage
73 | C10A G30U U43A | 0.01
74 | C10A U20C C42U | 0.01
75 | C10A G19A U32G | 0.06
76 | C10A C18U G40A C45G | 0.01
77 | C10A G27C G35C | 0.04
78 | C10A A14C G27U G44A | 0.02
79 | C10A A25C G33A G40A | 0.03
80 | C10A G19U G33U G40A | 0.02
81 | C10A A14G U28G G35U | 0.01
82 | C10A A16U U32A | 0.05
83 | U9G G19A G40A | 0.05
84 | C10A G19C G21U G33A | 0.03
85 | C10A C15U U32C | 0.01
86 | U9G G21A A39G | 0.88
87 | C10A A12C A14U | 0.05
88 | C10A U38C A41G | 0.1
89 | C10A U20G C31U G35C U43A | 0.03
90 | U9G U20C C23G G40A C45U | 0.01
91 | C10A A16U A26U | 0.02
92 | C10A G19A G22A | 0.06
93 | U9G G22U C42A | 0.14
94 | U9G C23U C31G | 0.02
95 | U9G C31U C37G | 0
96 | C10A G22A C37G | 0.02

Row | Variant | self-cleavage
97 | C10A C18A G21C | 0.04
98 | U9G G35U C42A | 0.02
99 | C10A U28A G29U | 0.04
100 | C10G A11G U38C A39C | 0.01
101 | C10A U20A A26U U32G G36C G44U | 0
102 | U9G G21A U38G | 0.01
103 | U9G G22A A24G A39G C42A | 0.02
104 | C10A U20G C23G | 0.02
105 | C10A A24G G30C G35A | 0
106 | U9G C13G A14C U20C C23U U28C G30U C42G | 0.05
107 | C10A C23A G30U C42U | 0.07
108 | C10A C13U C46A | 0.01
109 | C10A A11U G19U A39G | 0.03
110 | C10A G19U A39C C42A | 0.03
111 | C10A U32G U38G C46G | 0.02
112 | C10A G27U A41C C42A | 0.01
113 | U9G C15G A24C G30A C45A | 0.02
114 | C10A A14G G27C | 0.03
115 | C10A G27U C37A U38A | 0
116 | C10A G22U C31U U38C | 0.11
117 | U9G G30A A39U A41C C45A | 0.06
118 | C10A C13A U43G G44C | 0.01
119 | C10A C13U G36C C37U C42A C46A | 0
120 | C10A A25C G44A | 0.04

Row | Variant | self-cleavage
121 | C10A A11C C15G G27U C45U | 0.01
122 | C10A G19U C23G | 0.01
123 | C10A G17U A24G A26C A41C | 0.08
124 | U9G C15A G30A | 0.1
125 | C10A A16G G19C G21C G35U | 0
126 | C10A U28A C46G | 0.06
127 | C10A C13A C15A G19A C23A | 0.04
128 | C10A A12G C31A C42G | 0
129 | C10A A16G A39U | 0.06
130 | C10A G19U G21A C23A | 0.04
131 | U9G G21C G27U G44A | 0.04
132 | C10A G29U C37U | 0
133 | C10A A26U U28C C37U | 0.01
134 | U9G G17A U20G G27A G44C | 0.06
135 | C10A G19A A39G | 0
136 | C10A U20A G22U G36U | 0.03
137 | C10A A16C G19U | 0.02
138 | C10A C23G U32G | 0
139 | C10A A25G C46U | 0.03
140 | C10A A12C A14G A16G C46A | 0.02
141 | C10A G35C C37G | 0.02
142 | C10A C18G G33U | 0.02
143 | U9G G21C G22A | 0.05
144 | C10A C23A G30U | 0.02

Row | Variant | self-cleavage
145 | C10A A16U G27U U32A | 0
146 | C10A A11G C37U | 0.02
147 | C10A C18G A39G A41U | 0
148 | C10A G35A G44A | 0.03
149 | C10A C13U U34A G36A | 0.04
150 | C10A C13U G29A C37G | 0.01
151 | U9G C18U G29A C37G U38G | 0.01
152 | C10A A12G U32C G33A G44A | 0.05
153 | C10A A11U A25U G30U C31A | 0
154 | C10A A14G G21A G40C | 0.02
155 | C10A A11C U28G | 0.02
156 | C10A A24G G40A | 0.02
157 | C10A A12G G40A | 0.01
158 | C10A G19C G33U | 0.02
159 | C10A A11C G30A G40U A41U U43G | 0.03
160 | U9G U20G A25G | 0.09
161 | U9G G27A C45A | 0.01
162 | C10A C23A A26G C45G | 0.04
163 | U9G C15U G21U G27A | 0.01
164 | U9G G36C C42G C45A | 0.03
165 | C10A G33C G35C A39U A41U G44A | 0
166 | C10A G19A G30C C37G | 0.02
167 | C10A U20A A41G | 0.03
